Test results reported in the supplement of paper PMC11417369.
± gives the standard deviation of the averaged measurements. This is one part of the list.

System: PfAP2-I AP2 domain 3 (GST-tagged)
Test: gcPBM binding intensity (ln(normalized median fluorescence intensity)); higher = stronger DNA binding
Procedure, shortened: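 Binding of GST-tagged P. falciparum DNA-binding domains, expressed in E. coli and used at about 25 μg on average, was carried out for 1 h in 1× PBS containing 1% milk, 0.2 mg/ml BSA, 0.5% salmon testes DNA and 0.03% Triton X-100. The target was an Agilent 4 × 180k array of primer-extended double-stranded 36-bp intergenic genomic probes plus negative controls, read with Alexa488 anti-GST antibody at 488 nm. Binding intensity is the highest Masliner-normalised natural-log median intensity across replicate spots of either probe orientation.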

Row | Sequence | gcPBM binding intensity (ln)
1 | AGTATTATATTTGTATGTACGTAGTAATATATAAAA [XGTACX_site528] | 7.86 ± 0.6
2 | ATTTATATTTATGATACACACACGTATATTCACATA [CACACA_site460] | 7.92 ± 0.67
3 | TATGAAAAAAAAAATACACACACGAGTTGTTATACA [CACACA_site3188] | 7.53 ± 0.58
4 | AATGAAATATGGATGGGTACACATTTGATTTTATTA [XGTACX_site6155] | 7.61 ± 0.5
5 | TGTATGTATAGAAACACACATACATATATATAATAT [CACACA_site1405] | 7.5 ± 0.46
6 | ATATATATAAACATATGTACACATATATATAATACA [XGTACX_site1848] | 8.28 ± 0.4
7 | TAAGAAAATATTTATGTATGCATGTCCTAATATTTC [TGCATGCA_site295] | 7.88 ± 0.63
8 | AAAAAAAATTAATTAGTGCAAAATATATACAAAATA [GTGCAC_site9762] | 10.36 ± 0.071
9 | ATATAAAATATTAGTAGTACCATTAACAGTATTGTT [XGTACX_site5912] | 7.75 ± 0.35
10 | ATTAAGATGTATATATGTACATATTACATACATATA [XGTACX_site8657] | 7.61 ± 0.39
11 | TGAAAATAGTTAATTTGTACACAAAAATTAAGAAAA [XGTACX_site5794] | 8.04 ± 0.51
12 | AATTAAATAAATGTATGTACATAATAAATATGTATT [XGTACX_site4379] | 7.55 ± 0.41
13 | TTTTATTTTATAAAAATAAAAAAAAAATTATTACAA [TGCATGCA_negctrl_site508] | 7.38 ± 0.39
14 | TATGAAAATATATATTGTACAGAATCTATAAAAAAT [XGTACX_site8030] | 7.9 ± 0.44
15 | AAAGAAATATATACAAAAATATGAACAATTTATTAT [XGTACX_negctrl_site78] | 7.41 ± 0.55
16 | TTTTCGATGTTGGTAGGATGTATGGTACACGTAGTA [TGCATGCA_negctrl_site61] | 7.95 ± 0.67
17 | GAAAATTTTTGGTGTACACAAAAAAATCCAAAAAAA [CACACA_site5042] | 8.67 ± 0.17
18 | TATGATTGTTTACGTTGTACAGCTGAATTGTTCTTA [XGTACX_site8114] | 7.55 ± 0.47
19 | AATAAAAGATCATTTATTCTTTTTTTTCTTTTTAAA [CACACA_negctrl_site1256] | 7.12 ± 0.74
20 | TAAATAAATTTATACACACACACACCGATATATATA [CACACA_site4622] | 8.19 ± 0.63
21 | GAATGCCTTGAAAATAGTACAATTAAGAAAAAATAC [XGTACX_site8002] | 8.09 ± 0.45
22 | AAAATACATAAACGTTCACACATTTAAGATAACGAG [CACACA_site5345] | 7.7 ± 0.58

Row | Sequence | gcPBM binding intensity (ln)
23 | GAGTTTACACTCCCTTGTACATATTCATTTTTATTC [XGTACX_site5208] | 8.12 ± 0.63
24 | TGAATAAATATATATACACACATATATGTATATATT [CACACA_site1642] | 7.38 ± 0.51
25 | TATATATATAATATATGTACATATTAATTATGTATA [XGTACX_site5366] | 8.36 ± 0.028
26 | ATATAAAAAAAAGATGAAAAAAAAAATGAAAGAAAG [CACACA_negctrl_site1266] | 7.71 ± 0.66
27 | TTTTTTTTTTTTTACACACACAAAATATTATCTGTA [CACACA_site5378] | 8.22 ± 0.6
28 | ATATATATAATATGATGTACATATTTATTTATATAT [XGTACX_site7333] | 8.23 ± 0.39
29 | AATGAAATAAAATAAAGTACATATATGTAAAAGTAG [XGTACX_site5650] | 8.57 ± 0.54
30 | AATTGAAAAGAATGAAGTACACATTTGATGATACAT [XGTACX_site5182] | 7.75 ± 0.75
31 | TACATCTGTAATGTGTGTACATATATGTATATATTT [XGTACX_site1805] | 7.82 ± 0.53
32 | CATAAACTTTTTAACACACACTTATATATATATATA [CACACA_site4747] | 9.52 ± 0.18
33 | AAAAATTCTTTTTCATCTATATGCAGAAAGAAAAAG [CACACA_negctrl_site1201] | 7.76 ± 0.45
34 | TAATTTTTATGAAGAAGTACAAAATCTACTATCATA [XGTACX_site4985] | 7.39 ± 0.47
35 | CTAAATAAAGTTAACACACACATAATATATATATGT [CACACA_site486] | 7.75 ± 0.49
36 | TATATGAAGCTATAGACACACATATAAAAATATAAT [CACACA_site4850] | 7.47 ± 0.62
37 | GAATTTATGAACTGTGCATGTAAAAAAAACAACAAA [TGCATGCA_site449] | 8.62 ± 0.58
38 | TATAATAATATATATTGTACACACAAAATGGGAAAA [XGTACX_site3911] | 8.21 ± 0.72
39 | AGAAATACAAAATAAATATAAGAAACAAAATATTTA [CACACA_negctrl_site780] | 7.6 ± 0.48
40 | AAAAGGTTATCAATATGTACATATTTTTTTATTTTT [XGTACX_site3277] | 7.71 ± 0.75
41 | TGAAAAATAAATAAATGTACATATATATATATATAC [XGTACX_site7310] | 7.87 ± 0.45
42 | TATTTCATCATATTGTGTACTTAATTTATATAATTA [XGTACX_site5753] | 7.97 ± 0.54
43 | TTTTAATTAAAACACACACACACATATATATATATA [CACACA_site2291] | 9.41 ± 0.42
44 | ATAAAAATATGATCAACACACGATTAAATATTCATA [CACACA_site1495] | 7.49 ± 0.49

Row | Sequence | gcPBM binding intensity (ln)
45 | CATCTAAATTGTAGTTGTACACCTTAATCTTATTAC [XGTACX_site7547] | 8.19 ± 0.2
46 | TATTTTATCATTTGCACACGCACACCGACATAAAAA [CACACA_site4348] | 9.64 ± 0.15
47 | GTATCAAAAGAATACACACACACATACATATATATA [CACACA_site3796] | 8.35 ± 0.63
48 | ACTCTCTTATATTAAACACACATATTTATAGGTATA [CACACA_site7302] | 8.07 ± 0.45
49 | ATTTTAGAATAAATTTTTTACATTAAAAAACTATTT [CACACA_negctrl_site1414] | 7.37 ± 0.54
50 | TGAACATATTAAAATTGTACATATGCACAATATGTA [XGTACX_site6801] | 8.53 ± 0.29
51 | AAGGATATAACATACACACACACACGGATATAAATA [CACACA_site7867] | 7.91 ± 0.6
52 | CATACAATAAATATGGTGCATTTTATGTAACCGTTT [GTGCAC_site9420] | 10.2 ± 0.39
53 | TAAAAGTTAATATAAACACACAAAAATTAATAAATA [CACACA_site6316] | 7.66 ± 0.61
54 | AATTTCTATTTTGTGAGTACATACTCCTATTATATA [XGTACX_site3210] | 8.03 ± 0.5
55 | ATAATGGAGAAATAAGCATGCATTATATTATAAAAA [TGCATGCA_site325] | 8.01 ± 0.98
56 | TGAATATTTCTATATACACACATATAAATATAAATA [CACACA_site7593] | 7.55 ± 0.31
57 | AAAAAAAAAAAAATGTAATTTTTTAATTATTTATAT [GTGCAC_negctrl_site436] | 7.27 ± 0.37
58 | CATATATTTTTGTATAGTACTTTTTTTATTCGTTTT [XGTACX_site1860] | 7.84 ± 0.56
59 | ATATTACTTCCTAAGTGTACAAGTAAGGAGAAAAAA [XGTACX_site3921] | 8.22 ± 0.42
60 | GATAAAATGGATGGATGTACATTATTTCCATATAAT [XGTACX_site7781] | 7.66 ± 0.72
61 | AGATGTTTTTATATATGTACTTAAATACACAAATAT [XGTACX_site8250] | 8.03 ± 0.35
62 | AAAAAAAAAAAAAACACACACACAAAATAAACAAAC [CACACA_site2720] | 8.42 ± 0.45
63 | TTATCGGTATAATATAGTACATATAGATATATAATA [XGTACX_site1440] | 7.7 ± 0.39
64 | TGATAATTTTTTACATGTACAAGTTTGTTTTTGCAT [XGTACX_site125] | 7.88 ± 0.39
65 | ATTCTTTATTATTCGCCACACACATATATATATATA [CACACA_site9009] | 9.32 ± 0.28
66 | TATTGGAAAATTAGAAGTACTTTCATATATTAGACT [XGTACX_site4503] | 7.75 ± 0.36

Row | Sequence | gcPBM binding intensity (ln)
67 | TTTTTATTATTCCATAGTACAGAAAAAATGATATAT [XGTACX_site3431] | 7.88 ± 0.49
68 | ATACCTACATACATACGTACATATATATATATAATG [XGTACX_site234] | 8.49 ± 0.33
69 | TAGATTTTTATGCGTGCACACATTTAAAAAAAAAAC [CACACA_site3421] | 10.3 ± 0.25
70 | AAATATAATAACATAACACACACATGTATTTATAGG [CACACA_site8009] | 7.78 ± 0.49
71 | TTTTAATAAATTCAAAACATAAAAAGGAAAAAAAAA [XGTACX_negctrl_site471] | 7.78 ± 0.83
72 | TATAATGAGAAGATATAATATATAGGGGGTAATTCT [GTGCAC_negctrl_site228] | 8.01 ± 0.64
73 | TTTTTTTCATAAGAAGCACACAAAAAATGATAGAGA [CACACA_site8401] | 8.29 ± 0.4
74 | ATATATATATATATATGTACTTATTTGTATAAATAC [XGTACX_site8031] | 9.19 ± 0.39
75 | AGGATATAATACCATACACACATTTATAAAATAACA [CACACA_site1930] | 7.74 ± 0.49
76 | ATAATATGAAAACACACACACACACCCAAAAAAAAA [CACACA_site2011] | 8.44 ± 0.18
77 | CACATTAATTTTTGGGTGCACTTGGGAAATTTTGGT | 10.9 ± 0.51
78 | ATATATATTATATATATATATATATATATATATATA [CACACA_negctrl_site493] | 9.03 ± 0.59
79 | AACAAATACGAACACACACACACACTAAAAAAAAAA [CACACA_site6386] | 8.27 ± 0.59
80 | TGTAATCAAAAAAATAGTACATAAATTGTGTATACT [XGTACX_site5908] | 7.78 ± 0.43
81 | TAATAAATAAATGACACACACACACGCAAAAAAAAA [CACACA_site7275] | 8.35 ± 0.42
82 | ATATTTTCCCTTGTTTTACACACGTGCTGATATGAG [CACACA_site8672] | 8.59 ± 0.85
83 | AATTTGAAATATGTGGTGCAGTTATATAATATGTTT [GTGCAC_site9885] | 10.02 ± 0.028
84 | ATATAGAATAAAACTATACACACCTATATTTAAACA [CACACA_site1902] | 7.66 ± 0.42
85 | TGTAGTCTGGAGAAAAGTACACAGTATCTGGTAACC [XGTACX_site2033] | 7.88 ± 0.6
86 | CTTGTATAGAAACACACACACACTTTCTTTTTTTAA [CACACA_site1964] | 7.88 ± 0.69
87 | TATATTAATAAAGGTACTACACGGAAATGGAAATAT [XGTACX_site7760] | 8.58 ± 0.67
88 | ATATAAAAAAATAATAAATAAATAAAAAGATTTCTT [XGTACX_negctrl_site110] | 7.29 ± 0.73
